# From PubChem BioAssay AID1240 (Sanford-Burnham Center for Chemical Genomics, 2008)
# Hit rate of the full screen: of about 50,000 compounds, about 800 (1.6%) showed an effect of 50% or more. The list shows a part of the results.
# Target: Bcl-2-like protein 10 (Homo sapiens) (UniProt Q9HD36)
# Assay: Phenotype converters, Bcl-B/TR3 peptide binding displacement, primary biochemical FP (AID 1240);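 further: 0% = Bcl-B with tracer peptide and DMSO and 100% = tracer peptide lacking Bcl-B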
# Details: GST-Bcl-B / FITC-TR3 peptide fluorescence polarization; stronger effect = higher value; compound at 3.75 mg/L
# UniProt Q9HD36, sequence (Q9HD36 whole entry, looked up): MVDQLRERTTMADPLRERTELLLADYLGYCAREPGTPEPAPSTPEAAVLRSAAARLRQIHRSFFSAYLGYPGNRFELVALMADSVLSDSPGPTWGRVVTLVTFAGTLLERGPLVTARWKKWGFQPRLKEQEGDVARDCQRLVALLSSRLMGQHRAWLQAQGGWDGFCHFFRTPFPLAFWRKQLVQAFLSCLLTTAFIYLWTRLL
row,SMILES,displacement
1,O=C(N/C(=C/c1cccs1)C(=O)N1CCOCC1)c1ccccc1,8%
2,COCCCNS(=O)(=O)c1cc(Cl)ccc1Cl,-7.2%
3,CCN(CC)CC(O)Cn1c2c(c3cc(C)ccc31)CCCC2=O (stereo not drawn),-6.4%
4,O=C(N/N=C/c1ccccc1C(F)(F)F)c1ccc(CN2CCOCC2)cc1,0.7%
5,COc1ccc(CNC(=O)c2ccccc2Br)cc1,-7.1%
6,COc1ccc(Cl)cc1NC(=O)C1=C(C)NC(=S)NC1c1cccs1 (stereo not drawn),-9.7%
7,Cc1nn(CC(=O)Nc2c(C)n(C)n(-c3ccccc3)c2=O)c(C)c1[N+](=O)[O-],0.3%
8,O=C(Nc1ccc2c(c1)OCO2)c1ccco1,0.6%
9,Cc1cccc(C2(c3cccc(C)c3)CC2C(=O)NC(C)(C)C)c1 (stereo not drawn),-4.5%
10,O=C(CSc1nnc(-c2ccc3c(c2)OCO3)n1-c1ccccc1)c1ccccc1,1.9%
11,CCOc1ccccc1NC(=O)c1c(NC(=O)Cc2ccccc2)sc2c1CCCCC2,4.5%
12,Cc1ccc(COc2ccccc2C=C2C(=O)NC(=S)NC2=O)cc1,7.9%
13,CCOC(=O)c1oc2cc(-c3ccccc3)cc(O)c2c1C,-6.1%
14,Cc1ccc(C(=O)O/N=C(\N)c2ccc(Br)cc2)cc1,-13%
15,CCCCCCCN(C(=S)Nc1ccc(F)cc1)C1CC(=O)N(c2ccc(OCCC)cc2)C1=O (stereo not drawn),-1.5%
16,COc1ccc(C2N(Cc3ccccc3)CCN2Cc2ccccc2)cc1OC,14.4%
17,COc1ccc(OC)c(/C=C/c2[nH]c(=O)[nH]c(=O)c2[N+](=O)[O-])c1,13.1%
18,O=C(Nc1ccc(S(=O)(=O)Nc2nccs2)cc1)c1cncc(Br)c1,17.4%
19,COc1ccc(CCN2C(=O)CC(N3CCN(c4ccccn4)CC3)C2=O)cc1OC (stereo not drawn),-16.1%
20,CC(C)(CO)N=Cc1ccc(Cl)cc1,5.6%
21,CCOC(=O)c1ccc(NC(=S)NC(NC(=O)Cc2ccccc2)C(Cl)(Cl)Cl)cc1 (stereo not drawn),-15.3%
22,O=C(Nc1ccc2c(c1)OCCO2)c1ccc([N+](=O)[O-])cc1,0.7%

row,SMILES,displacement
1,COc1ccc(C(=O)Nc2ccc(C(=O)N3CCOCC3)cc2)cc1OC,1.7%
2,Cc1ccc(C(=O)O)cc1NC(=O)CN1C(=O)c2ccccc2C1=O,0.1%
3,CCOc1ccc(C(=O)Nc2ccc(Br)cn2)cc1Cl,0.3%
4,COc1ccc(-c2ccc(/C=C/C(=O)c3cc4ccccc4o3)o2)cc1,-52.6%
5,CCOc1ccc(C(=O)Nc2nnc(SCC)s2)cc1,16.4%
6,COc1ccc(C2C(C(=O)c3cccs3)=C(O)C(=O)N2c2nncs2)cc1 (stereo not drawn),143%
7,CC(=O)Oc1ccc2oc(C)c(C(C)=O)c2c1,16.5%
8,Cc1occc1C(=O)NNC(=O)c1ccccc1F,-11.5%
9,Cc1cc(C)c2oc(-c3cccc(NC(=S)NC(=O)c4ccco4)c3)nc2c1,12.1%
10,O=C(O)CCC(=O)Nc1cccc(-c2nc3cc4ccccc4cc3[nH]2)c1,-8.3%
11,COc1ccc(C(=O)N2CCN(C(=O)CC(C)C)CC2)cc1OC,-11.1%
12,CCN(CC)c1ccc(/C=C2\SC(=S)N(Cc3ccco3)C2=O)cc1,-82.1%
13,O=C(Nc1ccc(F)cc1)C1CC(=O)N(c2ccc(Cl)cc2)C1 (stereo not drawn),6.1%
14,C=C(C)Cn1c(SCC(=O)c2ccc(OC)cc2)nnc1-c1ccco1,5.7%
15,COc1ccc(S(=O)(=O)n2cccc2)cc1,2.5%
16,CC(C)COC(=O)c1ccc(NC(=O)c2ccc(Cl)c(Cl)c2)cc1,4.3%
17,CC(=O)Nc1ccc(NC(=O)CCC(=O)NCCO)cc1,-6.2%
18,COc1ccc(NC(=O)C2COc3ccccc3O2)c(OC)c1 (stereo not drawn),-8.1%
19,Cc1cc(C(=O)Nc2ccccc2C(=O)O)c(C)o1,-2.4%
20,COC(=O)c1cc(NC(=O)c2ccc3c(c2)OCO3)cc(C(=O)OC)c1,13.8%
21,COc1cc(-c2csc(N)n2)ccc1O,15.6%
22,COc1ccc(OC)c(/C=N/NC(=O)C(=O)Nc2ccc(OC)cc2OC)c1,2.1%

row,SMILES,displacement
1,COc1ccccc1C(=O)NC(NC(=O)c1ccccc1OC)c1cccc([N+](=O)[O-])c1,7.1%
2,COc1ccc(C2(CNC(=O)c3cc4ccccc4o3)CCOCC2)cc1OC,-6.6%
3,COc1ccc(C(=O)N/N=C/c2ccc(Sc3nnnn3-c3ccccc3)o2)cc1OC,-8.7%
4,COc1ccc(OCC(=O)N2CCN(c3ccccn3)CC2)cc1,0.3%
5,C/C=C/COC(=O)C1=C(C)NC(=O)NC1c1ccc(Cl)cc1Cl (stereo not drawn),7.8%
6,CC1=C(C(=O)Nc2cccc(Cl)c2C)C(c2cccs2)NC(=O)N1 (stereo not drawn),12.6%
7,Cc1cc(C)c(NC(=O)c2cccs2)c(C)c1NC(=O)c1cccs1,-3.3%
8,O=C(O)C1C2C=CC(C3CC23)C1C(=O)NCc1ccccc1 (stereo not drawn),-10.4%
9,O=C(CSc1nnnn1-c1ccccc1)Nc1cccc(C(F)(F)F)c1,9.8%
10,Cc1ccc(N2C(=O)/C(=C/c3ccc(OCC(=O)O)c(Br)c3)C(=O)NC2=S)cc1,-33.2%
11,N/C(=C/C(=O)c1cccs1)C(F)(F)C(F)F,-2.8%
12,Oc1cc(N=C/C=C/c2ccc(Cl)cc2)ccc1-c1nc2ccccc2o1,5.3%
13,O=C1/C(=C/c2ccc(-c3ccc(Cl)cc3C(=O)O)o2)Sc2ccccc21,-64.9%
14,Cc1cc(Cl)ccc1NC(=O)CCC(=O)N/N=C/c1cccnc1,8%
15,COC(=O)COc1ccc(/C=C2\C(=O)NC(=S)N(c3ccc(OC)cc3)C2=O)cc1OC,-10.2%
16,Cc1cccc(NC(=O)CSc2nc3ccc([N+](=O)[O-])cc3s2)c1C,-11.3%
17,CC(=O)Nc1ccc(C(=O)Nc2ccc(C(C)C)cc2)cc1,-8.6%
18,C/C(=C1/C(=O)N(c2nc3ccccc3s2)N=C1C(F)(F)F)N1CCC2CCCN2C1 (stereo not drawn),-11.6%
19,COc1ccccc1CC(=O)Nc1ccc(C)c(Cl)c1,7%
20,Cc1ccc(N=Cc2ccc(C)o2)c(O)c1,-10.4%
21,CCOC(=O)c1[nH]c(C)c(C(=O)CC(C)(C)C)c1C,-2.9%
22,COc1ccc2nc(NS(=O)(=O)c3ccc(Cl)cc3)c(Nc3ccc(NC(C)=O)cc3)nc2c1,12.1%

row,SMILES,displacement
1,O=C(CSc1nnc(CCCN2C(=O)c3cccc4cccc(c34)C2=O)n1-c1ccccc1)NCc1ccccn1,3.7%
2,Cc1ccc(N2CCN(CC(O)Cn3c4ccccc4c4ccccc43)CC2)cc1 (stereo not drawn),8.8%
3,C(=N\Nc1nc(N2CCOCC2)nc(N2CCOCC2)n1)/c1ccc2c(c1)OCO2,2.4%
4,CCC(=O)Nc1sc2c(c1C(=O)Nc1cccc3ccccc13)CCCCC2,8%
5,Cc1nc2c([N+](=O)[O-])cc(Br)cc2c(=O)[nH]1,30%
6,COc1ccccc1NC(=O)c1ccc(C)o1,12.3%
7,Cc1ccc(-c2csc(NC(=O)c3ccc(Cl)cc3)n2)cc1,10.4%
8,C=CCOc1ccc2c(C)c(CC)c(=O)oc2c1C,-14.5%
9,CC(C)(C)C1CCC(C(=O)N/N=C/c2cc([N+](=O)[O-])ccc2O)CC1 (stereo not drawn),10.8%
10,COc1ccc(/C=c2\sc3nc4c(C)c(C)ccc4n3c2=O)cc1,-1.4%
11,C(=N\Nc1ncc(-c2cccs2)s1)/c1ccccc1,-7.2%
12,CCc1ccc(N2CC(C(=O)N/N=C/c3ccc(C(=O)OC)cc3)CC2=O)cc1 (stereo not drawn),-4.9%
13,CCc1ccc(O)c(N=Cc2ccccc2O)c1,-2.1%
14,Cc1ccc(C2C3=C(CC(C)(C)CC3=O)OC3=C2C(=O)CC(C)(C)C3)o1,9.6%
15,CCOc1ccc(N(CC(=O)Nc2cccc(C(C)=O)c2)S(C)(=O)=O)cc1,5.2%
16,CCOc1ccc(C(=O)Nc2cccc3nsnc23)cc1Cl,30.9%
17,NC(=O)c1c(NC(=O)C23CC4CC(CC(C4)C2)C3)sc2c1CCCCCC2,-4%
18,COC(=O)c1ccc(CSc2nnc(CCCN3C(=O)c4cccc5cccc(c45)C3=O)n2-c2ccccc2)cc1,-10.3%
19,Cc1ccc2nc(SCCOc3ccccc3)[nH]c2c1,0.6%
20,O=C(c1cccc(Br)c1)N1N=C(C(F)(F)F)CC1(O)c1ccc(Cl)cc1 (stereo not drawn),1.2%
21,N#C/C(=C(/O)CO/N=C/c1ccccc1Cl)c1nc2ccccc2[nH]1,53.6%
22,C\C(=N/N=C/C=C/c1ccco1)C1C(=O)c2ccccc2C1=O,45.8%

row,SMILES,displacement
1,CC1=C(C(=O)OC2CCCCC2)C(c2ccccc2[N+](=O)[O-])C2=C(CCCC2=O)N1 (stereo not drawn),5.3%
2,CN(Cc1ccccc1)Cc1c(O)ccc2c3c(c(=O)oc12)CCC3,-3.2%
3,COC(=O)c1ccccc1NC(=O)COc1ccc(Cl)cc1C,-6%
4,Cc1cccc(OCC(=O)NCc2ccc(F)cc2)c1,-4.3%
5,O=C(Nc1ccc2nn(-c3ccc(F)cc3)nc2c1)c1cccc(Br)c1,-6.3%
6,CCOc1cc(/C=N/NC(=O)c2cc(-c3ccc4ccccc4c3)n[nH]2)ccc1O,-6.7%
7,CC(C)(C)C1CCc2c(sc(NC(=O)c3ccc(Br)cc3)c2C(N)=O)C1 (stereo not drawn),2.8%
8,O=C(c1ccccc1CCc1ccccc1)N1CCCc2ccccc21,3.9%
9,O=C1C(=Cc2cc(Br)ccc2OCc2ccccc2)C(=O)c2ccccc21,17.1%
10,NC(=O)c1cccc(NC(=O)c2ccccc2I)c1,-4.6%
11,COc1cc(/C=C(/C#N)C(N)=O)cc(Br)c1O,-72.2%
12,CC(c1ccccc1C(O)(c1ccccc1)C(F)(F)F)N(C)C (stereo not drawn),-3.1%
13,COc1ccc(-c2noc(-c3ccc(C)c([N+](=O)[O-])c3)n2)cc1OC,54.4%
14,Cc1ccc2c(c1)C1C=CCC1C(C(=O)O)N2 (stereo not drawn),142%
15,COc1ccc(C(=O)N2CCN(C(=O)c3ccc(-c4ccccc4)cc3)CC2)cc1OC,-7%
16,COc1cc(NC(=O)c2cc3n(n2)C(C(F)(F)F)CC(c2ccccc2)N3)c(OC)cc1Cl (stereo not drawn),2.7%
17,CC(=O)c1ccc(N(C(C)=O)C2=C(NCCO)C(=O)c3ccccc3C2=O)cc1,9.9%
18,COc1ccc(C(=O)Nc2sc3c(c2C(=O)Nc2cccc4ccccc24)CCCC3)cc1OC,2%
19,CCOc1ccc2c(c1)C(C)=CC(C)(C)N2C(=O)CN1C(=O)CCC1=O,12.7%
20,O=C1C(=O)N(c2nc3ccccc3s2)C(c2ccccc2F)/C1=C(/O)c1ccccc1 (stereo not drawn),6.1%
